Experimental data taken from PMC12136788.
This is one part of the list.

B1: 31773265_31773385_1100_CDS_ENSMUSG00000020300_ENSMUST00000109412|mouse|control|control (ssRNA)
RNA: GGGAGUUCUACAGUCCGACGAUCGUUCAAGCUAUCUUCCAUCCAGGAUUUUGGAGCAAAGGCUGAGCUAGGGCGAGCAUACUUCUGGAGCUGAAUAUGAUUGCUUGCGAAAUUUUUCUUCAAAGGUGAGAUUGAGUUCAGGGGCAACAGAGGAUUGAGCAUCA
B2: chr19:36967751:36967752:+_ENSMUSG00000024811_ENSMUST00000025729|mus_mus|motif|central (ssRNA)
RNA: GGGAGUUCUACAGUCCGACGAUCAAAGUGAUACUUAGGGAUACUUGUACCAUCACUCUCUUCUUAUGGAACACUGAAGACGGAUUACAGACAUGUCAUUAGCAUAUGGAAAUAUAAAAUACACUACUUUUUUUUCCUUUUAGACAACAGAGGAUUGAGCAUCA
B3: chr5:162900210:162900211:+_ENSG00000072571_ENST00000358715|hu_hu|motif|central (ssRNA)
RNA: GGGAGUUCUACAGUCCGACGAUCUUCGAUGUAUUCCAAGAGUUUUUCUGUUUCAGAUUUUUCAUCAAUCUUUUCUUUCUCGGUUGAAACAAGUUUUCCCUCCAGUUGGGCUAUUUUCCCUUGAGACUCUUCGAGACUCCUUUGCAACAGAGGAUUGAGCAUCA
B4: 60623417_60623537_136_5pUTR_ENSMUSG00000026014_ENSMUST00000140485|mouse|control|control (ssRNA)
RNA: GGGAGUUCUACAGUCCGACGAUCCCCUCGGCCCUCCCGGAGCCCUGCGCUAGGCAGCAGCUGCUCGCGCCUCCAGUCGCCGCCGCCGCCGCCUCUCCAGGGGCGACGCUCCUCUCCCGAACGCUGAGAGCGCCCGCAGCUCCCCAACAGAGGAUUGAGCAUCA
B5: chr2:48026839:48026840:+_ENSG00000116062_ENST00000540021|hu_hu|hu_hu_hu_mus_False|1_8 (ssRNA)
RNA: GGGAGUUCUACAGUCCGACGAUCAUAGUGAGCCACUAGCGUCCUAAAUCUGGAACAGUGGCGGUCAUCCGAAAACUGGCCGAUGAAAAACUUGCCCAGUGAAGUGUCCACAAAGCAAACACCAUACGCACGAGUAUGGCCAGACAACAGAGGAUUGAGCAUCA
B6: chrX:71099370:71099371:-_ENSMUSG00000031391_ENSMUST00000102871|mus_mus|FALSE|FALSE (ssRNA)
RNA: GGGAGUUCUACAGUCCGACGAUCUUUAUUUUUCGUGGAGUAGGGUCAUCAAAGCUAACUGCUAUAAAAUGGAGAAACCACCUAGAGACUCAGACAUCUGCCUACACACUAGUGGCAUAUGGGGAAAGGGCAACGGCACAAACUCAACAGAGGAUUGAGCAUCA
B7: chr9:33280828:33280829:+_ENSG00000086065_ENST00000223500|hu_mus|motif|central (ssRNA)
RNA: GGGAGUUCUACAGUCCGACGAUCAGUCCCAGAAUACUUCUCUUGUUGUUUCACAUCACGUGCUGGAAUGUUGUAAGUCGGCGAAGCGGGAAUCUGCGGCAGUCCAAAUUCAUCCACCAGCACGCCAUCCUUGUUUUUUGUGUCCAACAGAGGAUUGAGCAUCA
B8: chr10:1063573:1063574:+_ENSG00000107937_ENST00000545048|hu_mus|FALSE|FALSE (ssRNA)
RNA: GGGAGUUCUACAGUCCGACGAUCACUAUGUUUUUGCUGGGUGUUUACUUUGGAUAAAAUGGUUGAAGUUACAAUGAUACAUUGUACUACAGGUUUAGAAAAUAAUUUAAGAGUAGUUUAAGCUCUGAUAAACCCUAAAUGUAACAACAGAGGAUUGAGCAUCA
B9: 108478272_108478392_758_CDS_ENSMUSG00000066357_ENSMUST00000068700|mouse|control|control (ssRNA)
RNA: GGGAGUUCUACAGUCCGACGAUCCCGACCCCCAGGCACCCGGAGGUCCCCCACCUUCCAGAGACGAACACUUCGGUCUUCUGAAGCAGUUGCCAGCAGGCCCUUGCUUUCCAGGUAUGACAUGCUAAAGAUGACACCCACAUGCAACAGAGGAUUGAGCAUCA
B10: chr9:26905460:26905461:-_ENSG00000137055_ENST00000397292|hu_hu|FALSE|FALSE (ssRNA)
RNA: GGGAGUUCUACAGUCCGACGAUCUAUUCUCUUUUUUUAAUUAUCUGUUAUCAGUCAUGUCAAAUGUGAGGAAAAAAACACUAAUCAAUUAAAAAUAUCCGUCCCUCUUCCCCACUGCUACAGCAAAUUUAGGAUAAAUCUACACAACAGAGGAUUGAGCAUCA
B11: 125021761_125021881_2370_CDS_ENSMUSG00000014444_ENSMUST00000067252|mouse|control|control (ssRNA)
RNA: GGGAGUUCUACAGUCCGACGAUCGAGCUGCAUGAACGGUCUGUGGAAGUAGUGCAGCUGCAGGAUGCAGGCCAGCAGGAAGAAGCCAGGGAUGAGGAUACUGGAAAAGAGCUCCGACACACUGAACUGCUCCAGGCCCAGGUCCAACAGAGGAUUGAGCAUCA
B12: chr9:58722913:58722914:-_ENSMUSG00000032340_ENSMUST00000068664|mus_mus|FALSE|FALSE (ssRNA)
RNA: GGGAGUUCUACAGUCCGACGAUCGCGACAUACACGUUUGCUCCACACCCACUGGAAGGAAGCUGCUAGGCCCCAGCUCAACUAGGACACGACAAGACACACAAUGGUUUAGUUUCCAGAGUCACAGGAAAAUAUAAGACAUAUCAACAGAGGAUUGAGCAUCA
B13: chr1:231413285:231413286:+_ENSG00000116906_ENST00000366647|hu_mus|FALSE|FALSE (ssRNA)
RNA: GGGAGUUCUACAGUCCGACGAUCUUUGUGGCAGAGUAAGUCCUUUGUGACUGUCACUAUGGAACUGUGUUUUCUACAACUGCUCCAUUAUUGUUAUAGUUUUGCAGUGGCUGGUUUUCCUAUUGGCUUCUUACAUCCGAGCAUCAACAGAGGAUUGAGCAUCA
B14: 154753136_154754442_220_CDS_ENSMUSG00000053870_ENSMUST00000066568|mouse|control|control (ssRNA)
RNA: GGGAGUUCUACAGUCCGACGAUCCUCAAGGGAACAAAGUGUUGAUCCUCCAUUUCCAAUUUUGGUCCCAGCAGGAUCUGGAAAAACAUGGUAUUGAACUCCAAGAGGCAAUUCCCUUUUCUUCAGCUUCUCGGACAACUGUUGCAACAGAGGAUUGAGCAUCA
B15: 53626799_53626919_133_5pUTR_ENSG00000023287_ENST00000025008|human|control|control (ssRNA)
RNA: GGGAGUUCUACAGUCCGACGAUCACUCUAGGAGGCAGGGAGGGGUCCGGGCGGACAAGGACGCGAGCAGGCCCCUCGGCUCUGGGUCUGGGGCCGGGGGACAGAAGGCCGCGGCCUGUCAGAGCCGAGGGGCCCAGGCGACUGCAACAGAGGAUUGAGCAUCA
B16: chr10:127900053:127900054:+_ENSMUSG00000025369_ENSMUST00000099131|mus_mus|FALSE|FALSE (ssRNA)
RNA: GGGAGUUCUACAGUCCGACGAUCACUCUUGAAUUUGUAGGCAGCUGCAAGAAUAUGGCAGAGGGAUCCUCCUGCUUUGAAAUCUAGGAAACAUUUGAUCGGCAGUUUAGUAAGCGGUGCGUUGCUGACAUGUUUGCCAAAAACCAACAGAGGAUUGAGCAUCA
B17: chr2:157385914:157385915:+_ENSMUSG00000067786_ENSMUST00000109526|mus_hu|FALSE|FALSE (ssRNA)
RNA: GGGAGUUCUACAGUCCGACGAUCCAGCCGAUGAUGAGCAGUUCAGCCGAGGCCGCCGCCACUGCCGCCAUGGUUCCAAGAAUGGUAGGUGGGUGGUCGAGAAAGAGGGUUUGCCGAGAUCCGCUGGUCUCGGAGUCCGCUGUUCAACAGAGGAUUGAGCAUCA
B18: chr8:41682716:41682717:-_ENSMUSG00000039431_ENSMUST00000048898|mus_mus|motif|central (ssRNA)
RNA: GGGAGUUCUACAGUCCGACGAUCCACAUCGCUGAGCUGCCAAUAAUUAUCAGGGAGGCCCAUUCGCUUGUAUUCUUCACGGAGGUCAACCAGCAACCAGCCCUGCUCCCGUUCUUCCUUAUCCAGCUUGGGGUUGAAGGAAAACAACAGAGGAUUGAGCAUCA
B19: chrX:117043865:117043866:-_ENSG00000003096_ENST00000371882|hu_hu|motif|central (ssRNA)
RNA: GGGAGUUCUACAGUCCGACGAUCGCGAAGCCAACGACAGGUAGCCUUAAAGAGCUCAAGUUCAGUACAGUGCUUAAGGCGGUUACUGGAAAGCACGAAGGCAAGACGCUCAAAAGGGAGUUUCAAGAACUCCCCUGUGCUCAGCAACAGAGGAUUGAGCAUCA
B20: chr15:41871108:41871109:+_ENSG00000092445_ENST00000263798|hu_hu|FALSE|FALSE (ssRNA)
RNA: GGGAGUUCUACAGUCCGACGAUCUCCUCUUGCUGGCUCGGCACGCUGCCUUUGGAAGAGGGGCACCUGAUAGGCUGGGUACUCCAGCAUGCCUUUGUGUGACCCGGUCAGCUGCAGGGAAGCAUGCUCCCCUCAACUUCUCCUCAACAGAGGAUUGAGCAUCA
B21: 135111022_135113256_79_3pUTR_ENSMUSG00000030795_ENSMUST00000077609|mouse|control|control (ssRNA)
RNA: GGGAGUUCUACAGUCCGACGAUCCAGGCUGGGUAGGAUAGGCCCCGUAGCUUUGAGUUGCUUGUUGGGUAUAGUCGUUUGAAGCCAUGUCCGCGCACGCGCGCAGCGCAGGCCGCCAAGCAACAAAGUUCCAGACGACCGCGACAACAGAGGAUUGAGCAUCA
B22: chr5:92853364:92853365:-_ENSMUSG00000034826_ENSMUST00000038514|mus_hu|FALSE|FALSE (ssRNA)
RNA: GGGAGUUCUACAGUCCGACGAUCAUUCUGUAAAAGCUGUUUGAUCUGUGCAGGAGAAAGUUCUGUUCUAGUCAUAGAAAGGGUUACACCAAGUUGCUGCAAUUGUGUUUUUAUAUUGGCUUGUUCAAAAUGGGCAUAUAGCGUCAACAGAGGAUUGAGCAUCA

Target: T1, UNK ZnF1-3 (human, UniProt Q9C0B0 31-174)
T1 sequence: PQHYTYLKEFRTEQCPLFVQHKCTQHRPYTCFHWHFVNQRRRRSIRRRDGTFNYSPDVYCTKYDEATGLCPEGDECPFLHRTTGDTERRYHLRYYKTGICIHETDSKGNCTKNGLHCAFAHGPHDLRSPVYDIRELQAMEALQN
Assay: nsRBNS (natural sequence RNA bind-n-seq); RBNS binding buffer (assumed for nsRBNS): 25 mM Tris pH 7.5, 150 mM KCl, 3 mM MgCl2, 0.01% Triton X-100, 500 ug/ml BSA, 20 U/ml SUPERase-In, 4 C; UNK is unkempt and MSI1 is Musashi-1; names of the RNAs are library labels; protein concentration not given here; high values mean tight binding

| Binder | binding signal [enrichment R] |
| --- | --- |
| B1 | 2.27 |
| B2 | 1.05 |
| B3 | 0.371 |
| B4 | 1.08 |
| B5 | 0.92 |
| B6 | 1.8 |
| B7 | 0.848 |
| B8 | 1.17 |
| B9 | 1.54 |
| B10 | 2.03 |
| B11 | 1.76 |
| B12 | 1.38 |
| B13 | 0.267 |
| B14 | 0.622 |
| B15 | 0.319 |
| B16 | 0.671 |
| B17 | 0.724 |
| B18 | 1.48 |
| B19 | 0.856 |
| B20 | 0.632 |
| B21 | 0.627 |
| B22 | 1.23 |
